# Test results published in PubChem BioAssay AID1460 (National Center for Advancing Translational Sciences (NCATS), 2008).
# The campaign covered roughly 270,000 compounds. About 5,800 (2.1%) were called active. Inconclusive means that the source gave no clear call. Such entries were picked first, then a sample of the others. Calls follow the shape of the dose curve; as a rule, active = well fitted inhibition curve with a large enough effect; inconclusive = small, poorly fitted or top-dose-only effect; inactive = flat fitted curve, though single readings scatter. Where the call is inconclusive, the potency comes from a doubtful curve fit.
# Target: Microtubule-associated protein tau (Homo sapiens) (UniProt P10636)
# Experiment: qHTS for Inhibitors of Tau Fibril Formation, Thioflavin T Binding; also: nearly all actives have a fitted effect of over 55% in size
# Details: recombinant tau K18 P301L (four-repeat tau fragment), heparin-induced fibrillization, ThT fluorescence; series mostly up to 57.4 µM
# Summary of the method: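 Heparin-induced (20 uM) aggregation of recombinant human K18 P301L tau, 15 uM unlabeled with 0.24 uM labeled, pH 7 acetate buffer, 6 hr at 37 C with compound. Fibrils quantified by 30 uM ThT fluorescence after 1 hr ambient incubation.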
# Potency is read from the fitted curve at half-maximal effect; tags tell the direction and shape of the fitted curve.
# Sequence of UniProt P10636 (P10636 whole entry, looked up): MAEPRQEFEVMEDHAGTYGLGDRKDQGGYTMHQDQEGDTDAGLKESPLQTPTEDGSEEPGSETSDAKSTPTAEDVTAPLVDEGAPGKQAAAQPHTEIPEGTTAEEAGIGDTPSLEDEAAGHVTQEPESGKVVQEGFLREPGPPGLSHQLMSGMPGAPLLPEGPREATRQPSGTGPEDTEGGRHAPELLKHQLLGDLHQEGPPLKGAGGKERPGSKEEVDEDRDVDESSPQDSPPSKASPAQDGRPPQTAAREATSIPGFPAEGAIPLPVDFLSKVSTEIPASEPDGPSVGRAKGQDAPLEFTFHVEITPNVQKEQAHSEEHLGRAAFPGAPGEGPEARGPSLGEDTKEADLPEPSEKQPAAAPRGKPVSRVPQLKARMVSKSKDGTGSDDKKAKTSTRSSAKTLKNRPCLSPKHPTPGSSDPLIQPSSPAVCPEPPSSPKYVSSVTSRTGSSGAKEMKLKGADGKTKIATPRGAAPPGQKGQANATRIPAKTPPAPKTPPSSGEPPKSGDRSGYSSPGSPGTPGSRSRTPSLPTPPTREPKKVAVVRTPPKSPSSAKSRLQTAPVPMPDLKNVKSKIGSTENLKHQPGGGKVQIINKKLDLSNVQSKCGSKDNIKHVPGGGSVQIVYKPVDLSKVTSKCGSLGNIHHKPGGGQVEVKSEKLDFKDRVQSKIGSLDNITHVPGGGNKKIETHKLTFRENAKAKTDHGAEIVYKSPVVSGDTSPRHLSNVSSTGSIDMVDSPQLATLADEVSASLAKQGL
row,Structure (SMILES),Potency
1,Cc1nc(SCc2ccc(F)cc2)c2oc3ccccc3c2n1,inactive
2,COc1cc(OC)cc(-c2nc3nc(C)c(CCC(=O)Nc4ccc(C)c(C)c4)c(C)n3n2)c1,"inconclusive: 11.2 µM [inhibitor, partial curve]"
3,O=C(Nc1nc2ccc3ccccc3c2s1)c1ccc(N2CCCCC2)c([N+](=O)[O-])c1,active: 3.98 µM
4,COc1cc(/C=C2/SC(=S)N(CC(=O)Nc3nc4ccccc4s3)C2=O)cc(OC)c1OC,"inconclusive: 3.98 µM [inhibitor, partial curve]"
5,CC1CN(c2ccccc2)C(=O)CS1 (configuration not stated),"inconclusive: 35.5 µM [inhibitor, single point]"
6,O=C(COc1ccccc1-c1ccccc1)NCCN1C(=O)S/C(=C\c2cccnc2)C1=O,"inconclusive: 15.8 µM [inhibitor, partial curve]"
7,C=CCN1C=C2C(=O)C(C)(OC(=O)C3CCCC3)C(=O)C=C2C=C1c1ccsc1 (configuration not stated),"inconclusive: 12.6 µM [inhibitor, partial curve, poor fit]"
8,CCc1cc(=O)oc2cc(OCC(=O)N3CCc4ccccc43)ccc12,"inconclusive: 1.41 µM [inhibitor, partial curve]"
9,CC(C)c1ccc(NC(=O)CN2C(=O)COc3ccc(S(=O)(=O)N4CCCCC4)cc32)cc1,inactive
10,CCc1c(C(=O)Nc2ccccc2)c(C)[nH]c(=S)c1C#N,inactive
11,CCCC(=O)C1=C(c2ccccc2)C(C#N)(C#N)C(C#N)=C1N,active: 28.2 µM
12,Cn1cccc1-c1nc2ccc(NC(=O)c3cccs3)cc2[nH]1,active: 11.2 µM
13,Cc1cccnc1NC(=O)c1c(O)c2ccccc2n(C)c1=O,"inconclusive: 39.8 µM [inhibitor, single point]"
14,Cc1ccc(C(=O)NN2C(=O)CSC2=S)cc1,"inconclusive: 15.8 µM [inhibitor, partial curve]"
15,COc1ccc(NC(=O)Cn2cnc3sc(C)c(S(=O)(=O)N4CCN(c5ccccc5OC)CC4)c3c2=O)cc1OC,"inconclusive: 3.16 µM [inhibitor, single point]"
16,S=c1[nH]nc(-c2ccc(Cl)cc2)n1-c1ccc2c(c1)OCCO2,inactive
17,CCOc1ccc(Nc2oc(-c3ccco3)nc2C#N)cc1,"inconclusive: 15.8 µM [inhibitor, single point]"
18,O=C1C2CCCN2C(c2ccc(F)cc2)N1c1ccc(Cl)cc1 (configuration not stated),inactive
19,CNc1ccc(/C=C(\C#N)c2ccccn2)cc1[N+](=O)[O-],"inconclusive: 2 µM [inhibitor, full curve]"
20,CC(=O)OC1CCC2(C)C(=CCC3C2CCC2(C)C3C[C@@H]3O[C@]32C(C)=O)C1 (some centres not stated),inactive
21,Cc1nn2c(nc(N3CCCCC3)c3ccccc32)c1C=O,"inconclusive: 0.126 µM [activator, full curve, poor fit]"
22,CC(C)=CCc1c(O)cc2oc3c(CC=C(C)C)c(O)c(O)c(CC=C(C)C)c3c(=O)c2c1O,"inconclusive: 22.4 µM [inhibitor, partial curve]"
23,CCCN1C(=O)c2cc(C(=O)Nc3ccc(OC)cc3OC)ccc2C1Nc1ccc(OC)cc1OC (configuration not stated),inactive
24,C/C=C\C1=C(CO)C(=O)[C@@H]2OC2C1=O (some centres not stated),active: 3.55 µM

row,Structure (SMILES),Potency
1,CC(C)(C)C(=O)NC(=S)N1CCc2ccccc21,"inconclusive: 12.6 µM [inhibitor, partial curve]"
2,NC(=O)c1c(NC(=O)c2ccco2)sc2c1CCC2,"inconclusive: 5.01 µM [inhibitor, full curve]"
3,CCOc1ccccc1NC(=O)CSc1nnc2[nH]c(=O)cc(-c3ccccc3)n12,"inconclusive: 3.98 µM [inhibitor, partial curve]"
4,CC(OC(=O)CCc1nc2ccccc2c(=O)[nH]1)C(=O)NC1CCCC1 (configuration not stated),inactive
5,CC(C)c1nc(SCC(=O)N2CCN(c3ccccc3)CC2)c2c(=O)n(C)c(=O)n(C)c2n1,"inconclusive: 39.8 µM [inhibitor, single point]"
6,Cc1cc(C)cc(NC(=O)Cn2cc(S(=O)(=O)NC(C)(C)C)c(S(=O)(=O)NC(C)(C)C)c2)c1,inactive
7,O=C(NCCn1cc(SCc2ccccc2Cl)c2ccccc21)c1cccs1,inactive
8,NNC(=O)c1cc2cc3ccccc3nc2s1,"inconclusive: 20 µM [inhibitor, partial curve]"
9,COc1cccc2c1cc1c(=O)n(CC(=O)N3CCN(c4ccc(Cl)cc4)CC3)nc(C)n12,"inconclusive: 1.12 µM [inhibitor, partial curve]"
10,Fc1ccc(Nc2ncnc3onc(-c4cccc(Cl)c4)c23)c(F)c1,inactive
11,CN1CCN(/N=C/c2ccc(-c3ccc([N+](=O)[O-])cc3Cl)o2)CC1,active: 11.2 µM
12,COc1cc(/C(C)=N/Nc2ccc(C(=O)O)cc2)cc(OC)c1OC,"inconclusive: 20 µM [inhibitor, single point]"
13,Cc1cc2nc(-c3ccc(OCc4ccccc4Cl)cc3)cc(C(F)(F)F)n2n1,"inconclusive: 2.82 µM [inhibitor, full curve, poor fit]"
14,COc1cc(/C=N/NC(=O)c2cccc(S(=O)(=O)N3CCCCC3)c2)cc(Br)c1O,"inconclusive: 0.0251 µM [inhibitor, full curve, poor fit]"
15,C=CCOC(=O)C(=O)/C=C/c1c(C)n(C)n(-c2ccccc2)c1=O,inactive
16,Cc1ccc(C)c(-n2c(C)cc(/C=N/NC(=O)c3c(C)nc4cc(C)ccn34)c2C)c1,inactive
17,COc1cccc(C(=O)N2CCN(CCc3ccncc3)CC2)c1,inactive
18,Cc1cccc(C(=O)NCC(=O)OCc2cc(=O)n3nc(CC(C)C)sc3n2)c1,inactive
19,COc1ccc(-c2nc(C#N)c(NC(C)C)o2)cc1,"inconclusive: 28.2 µM [inhibitor, single point]"
20,O=C1OCCC1Sc1nnc(-c2ccc(Cl)cc2)n1Cc1ccccc1 (configuration not stated),inactive
21,COc1cccc(CNC(=O)c2ccc3c(c2)c(C)c(C)n3Cc2ccccc2)c1OC,inactive
22,Brc1ccc(-c2nnc(-c3ccc4c(c3)OCO4)o2)o1,"inconclusive: 7.94 µM [inhibitor, full curve]"
23,COc1cccc(CNn2cnnc2)c1O,inactive
24,O=C(CSc1nnc(C2COc3ccccc3O2)o1)N1CCCCC1 (configuration not stated),"inconclusive: 39.8 µM [inhibitor, single point]"

row,Structure (SMILES),Potency
1,CCN(CCCNC(=O)CCNC(=O)Cn1cnc2ccccc2c1=O)c1ccccc1,"inconclusive: 39.8 µM [inhibitor, single point]"
2,COc1ccccc1OCCCn1cc(C#N)c2ccccc21,"inconclusive: 31.6 µM [inhibitor, single point]"
3,Cc1cccc(/C=N/NC(=O)C(C)Nc2cccc3ccccc23)n1 (configuration not stated),"inconclusive: 15.8 µM [inhibitor, partial curve]"
4,COCc1cc(O)c(O)c(O)c1-c1c(COC)cc(O)c(O)c1O,active: 3.16 µM
5,COc1cccc(C(=O)NCc2ccc3[nH]c(C)cc3c2)c1,inactive
6,O=S(=O)(Nc1cc(F)ccc1F)c1ccc2[nH]c3c(c2c1)CCCC3,inactive
7,CCc1ccc(NC(=O)CO/N=C(\C)c2cc3ccccc3o2)cc1,"inconclusive: 25.1 µM [inhibitor, partial curve, poor fit]"
8,COc1cc(/C=N/NC(=O)c2cccc([N+](=O)[O-])c2)ccc1OCc1ccccc1,"inconclusive: 0.708 µM [inhibitor, full curve]"
9,CNC(=O)c1c(NC(=O)c2ccc(S(=O)(=O)N3CCCCC3)cc2)sc2c1CCC2,"inconclusive: 17.8 µM [inhibitor, single point]"
10,O=C(Nc1ccc(Cl)cn1)c1ccc([N+](=O)[O-])o1,"inconclusive: 15.8 µM [inhibitor, partial curve]"
11,CCc1ccc(C(=O)c2cn(CC(=O)NC3CCCCC3)c3nc(C)ccc3c2=O)cc1,"inconclusive: 15.8 µM [inhibitor, partial curve]"
12,C=CCN1c2ccccc2[C@]23C[C@@H](C(=O)OC)N(S(=O)(=O)c4ccc(C(F)(F)F)cc4)C2=NC(C(=O)OC)=C(C(=O)OC)[C@H]13,"inconclusive: 1.26 µM [inhibitor, single point]"
13,Cc1cccnc1NC(=S)NCCc1ccccc1,inactive
14,CCOC(=O)c1cc2c(=O)n3ccccc3nc2n(C(C)C)c1=NC(=O)c1cc2ccccc2o1,inactive
15,CC1SCC(=O)N(CC(=O)NCCc2ccccc2)C1=O (configuration not stated),inactive
16,C(=N\Nc1nc2ccccc2[nH]1)/C1CCCCC1,"inconclusive: 25.1 µM [inhibitor, partial curve]"
17,CCc1cc(=O)oc2cc(C)c(CN3CCCC3)c(O)c12,"inconclusive: 20 µM [inhibitor, single point]"
18,Clc1cccc(-c2nc(-c3ccccn3)no2)c1,"inconclusive: 20 µM [inhibitor, partial curve]"
19,Cc1nnc(N2CCN(C(=O)NC(C)C)CC2)c2nn(-c3ccccc3)c(C)c12,inactive
20,COc1cc2c(C(=O)NCc3ccc(C)o3)cn(CC(C)C)c(=O)c2cc1OC,inactive
21,CCN(CC)c1ccc(NC(=O)c2cnc3c(-c4ccccc4)c(C)nn3c2C)c(C)c1,"inconclusive: 10 µM [inhibitor, partial curve]"
22,Cc1ccc(C)c(N(CC(=O)NC2CCCC2)C(=O)c2cc3cc4cccc(C)c4nc3s2)c1,inactive
23,Cc1cccc(OCC(=O)Nc2nc3c(s2)CC(C(C)(C)C)CC3)c1C (configuration not stated),"inconclusive: 39.8 µM [inhibitor, single point]"
24,CCc1ccc(Nc2nn(-c3ccc(OC(F)(F)F)cc3)nc2C(C)=O)cc1,"inconclusive: 3.55 µM [inhibitor, single point]"
